Measured values: publication PMC4336329 (PLoS ONE, 2015)
Hit rate of the full screen: of about 310,000 compounds, about 14,000 (4.5%) showed an effect of 50% or more. The effect is printed as a negative number. The list shows a part of the results.

Molecular target: human ether-à-go-go-related gene (hERG) potassium channel (human, UniProt Q12809)
Assay: primary screen, population patch clamp on CHO cells stably expressing hERG
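Further: peak tail current of the secondary pulse compared with the same well before compound.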

Sequence of human ether-à-go-go-related gene (hERG) potassium channel (Q12809 whole entry, looked up): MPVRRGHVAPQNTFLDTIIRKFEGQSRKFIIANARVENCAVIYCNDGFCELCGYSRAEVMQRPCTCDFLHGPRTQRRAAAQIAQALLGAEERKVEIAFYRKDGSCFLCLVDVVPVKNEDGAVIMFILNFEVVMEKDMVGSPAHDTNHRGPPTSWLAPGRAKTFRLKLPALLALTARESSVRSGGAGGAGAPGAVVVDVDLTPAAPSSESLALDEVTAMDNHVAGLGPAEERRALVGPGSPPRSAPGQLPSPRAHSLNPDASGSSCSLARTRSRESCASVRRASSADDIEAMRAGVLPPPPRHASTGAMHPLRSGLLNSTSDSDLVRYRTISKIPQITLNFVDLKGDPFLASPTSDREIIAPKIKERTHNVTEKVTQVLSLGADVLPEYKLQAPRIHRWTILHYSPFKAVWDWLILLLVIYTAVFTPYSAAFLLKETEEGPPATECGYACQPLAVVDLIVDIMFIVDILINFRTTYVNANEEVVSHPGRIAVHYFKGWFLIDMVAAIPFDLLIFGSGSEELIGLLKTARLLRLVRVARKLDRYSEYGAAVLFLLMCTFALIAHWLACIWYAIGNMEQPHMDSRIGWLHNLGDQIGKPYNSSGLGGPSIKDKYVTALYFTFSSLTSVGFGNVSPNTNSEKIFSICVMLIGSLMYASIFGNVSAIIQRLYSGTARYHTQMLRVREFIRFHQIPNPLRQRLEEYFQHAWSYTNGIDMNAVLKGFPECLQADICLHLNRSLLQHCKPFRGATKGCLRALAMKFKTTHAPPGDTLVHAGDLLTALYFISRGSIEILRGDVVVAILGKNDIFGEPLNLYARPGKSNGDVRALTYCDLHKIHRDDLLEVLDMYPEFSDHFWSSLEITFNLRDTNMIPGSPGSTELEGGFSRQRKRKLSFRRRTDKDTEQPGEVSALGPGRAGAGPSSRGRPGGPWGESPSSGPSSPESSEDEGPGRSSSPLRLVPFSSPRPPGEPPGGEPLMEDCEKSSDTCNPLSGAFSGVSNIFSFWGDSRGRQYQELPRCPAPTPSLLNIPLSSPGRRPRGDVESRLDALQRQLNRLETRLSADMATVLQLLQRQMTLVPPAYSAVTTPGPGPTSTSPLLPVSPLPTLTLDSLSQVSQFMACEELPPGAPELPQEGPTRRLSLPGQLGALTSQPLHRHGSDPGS

SMILES	hERG current change (%, negative = inhibition) at 10uM
Cc1ccc(OCCN2C(=O)c3ccccc3C2=O)c(C)c1	-1.63%
Cc1ccc(C)c(S(=O)(=O)N2CCN(CC(=O)NC(=O)NCc3ccccc3)CC2)c1	-9.97%
O=C(CSc1nc(-c2ccco2)cc(C(F)(F)F)n1)N1CCSCC1	-19.9%
O=C(NCCCN1CCOCC1)C(=O)N/N=C/c1ccc(F)cc1	6.8%
COc1ccc(N(CC(=O)Nc2ccc(C)cc2)S(=O)(=O)c2c(C)noc2C)cc1	19.8%
O=C(NNc1nc(N2CCOCC2)nc(N2CCOCC2)n1)Nc1ccc(Cl)cc1	10.6%
COC(=O)c1sc(C(F)(F)F)c(-c2ccccc2)c1S(=O)(=O)N(C)C	9.31%
CC1Cc2ccccc2N1C(=O)CSc1ncccn1 (stereo not drawn)	4.57%
CC1C(=O)C(C)(C)C(=O)OC1c1ccc([N+](=O)[O-])cc1 (stereo not drawn)	11.8%
Cc1ccc(Nc2cccc(C(F)(F)F)c2)nn1	-0.351%
O=Cc1ccc(OC(=O)Cc2ccc(F)cc2)cc1	11.2%
Cc1cc(C)nc(SCc2ccc(C(=O)N/N=C/c3ccncc3)cc2)n1	-50.5%
COc1ccccc1N=Cc1c(C)c(C#N)c2[nH]c3ccccc3n2c1=O	6.06%
CCC1CCCCN1Cc1ccc(CNS(=O)(=O)c2ccc3c(c2)oc(=O)n3C)o1 (stereo not drawn)	-19.3%
O=C(N/N=C/c1cnc(N2CCOCC2)s1)c1ccccc1	15.1%
Cc1nn(C)c(C(=O)N2CCN(C(=O)c3ccco3)CC2)c1Br	18.3%
CC(C)c1cc(CN2CCN(C3CCCC3)C(CCO)C2)[nH]n1 (stereo not drawn)	-5.93%
CC(=O)N=c1ncn(CC(COC(C)=O)OC(C)=O)c2nc[nH]c12 (stereo not drawn)	12.7%
O=C1CCCN1CCC12CC3CC(CC(C3)C1)C2	-6.45%

SMILES	hERG current change (%, negative = inhibition) at 10uM
CC(C)CCOc1ccc(C(=O)NCCC(=O)N2CCOCC2)cc1	-4.62%
COc1ccc(S(=O)(=O)n2ccc(-c3ccc(OCCN(C)c4ccccn4)cc3)n2)cc1	11.4%
C=CCOC(=O)C1=C[C@H](c2ccc(C(F)(F)F)cc2)C[C@H](OCCCCO)O1	-26.5%
Cc1cc(C)cc(NC(=O)COC(=O)Cn2cnc3c2c(=O)n(C)c(=O)n3C)c1	-41.1%
CC(C)(C)n1nc2c(c1NC(=O)c1cccs1)CS(=O)C2 (stereo not drawn)	23.4%
C/C(N)=C(/C#N)C(=O)COC(=O)c1cc(-c2ccc(C)cc2)nc2ccccc12	16.8%
Cc1c(C(=O)NN2CCOCC2)cccc1[N+](=O)[O-]	3.03%
Cc1ccccc1NC(=O)c1ccc(S(=O)(=O)N2CCCC2)cc1	10.2%
CCN(CCn1cccn1)C(=O)CC1C(=O)NCCN1CCc1ccccc1 (stereo not drawn)	-1.17%
COc1ccccc1Nc1nnc(Cc2ccccc2)c(=O)[nH]1	22.9%
Cc1cc(C)cc(C(=O)NCCC(=O)N2CCC3(CC2)NCCc2[nH]cnc23)c1	24.4%
COc1ccc(NC(=O)CCN=C2NS(=O)(=O)c3ccccc32)cc1S(=O)(=O)N(C)C	-0.187%
CCCOc1ccc2oc(=O)c3c(c2c1)CCCN3C(=O)CN1CCN(C(=O)c2ccco2)CC1	-65.3%
CCCCCn1c(=O)[nH]c2cc(C(=O)NCCN3CCC(C)CC3)ccc2c1=O	-30.2%
Cc1cc(/C=N/n2cnnc2)c(C)n1-c1cccc(C(=O)O)c1	5.55%
CCC(CO)NCc1ccc2c(c1)n(C)c(=O)n2C.Cl (stereo not drawn)	17.4%
CCN(c1ccccc1)S(=O)(=O)c1ccc(NCC2COc3ccccc3O2)nc1 (stereo not drawn)	-2.4%
COc1ccc(/C=C(\NC(=O)c2ccccc2)C(=O)NNC(=O)CCN2CCOCC2)cc1	8.16%
CC(OC(=O)c1cc[n+]([O-])cc1)C(=O)NCc1ccccc1 (stereo not drawn)	11%

SMILES	hERG current change (%, negative = inhibition) at 10uM
CN(C)C(=O)CNC(=O)CN1C(=O)NC2(CCCc3sccc32)C1=O (stereo not drawn)	10.7%
C1=C(CCNc2nnnn2-c2ccccc2)CCCC1	-1.63%
CCC(=O)N(Cc1cc2ccccc2[nH]c1=O)c1ccc(OC)cc1	-11.9%
O=C(Nc1ccc(F)cc1)Nc1ccc(NC(=O)c2ccccc2O)cc1	8.33%
O=C1CC(c2ccccc2)Cc2nc(N3CCc4ccccc4C3)ncc21 (stereo not drawn)	-2.75%
O=C(NC1CONC1=O)OCC(Cl)(Cl)Cl (stereo not drawn)	8.91%
CN(CC(=O)Nc1nc2ccccc2s1)S(=O)(=O)c1ccc(Br)cc1	-7.29%
COc1ccc(NC(=O)c2c(-c3c(Cl)cccc3Cl)noc2C)cn1	4.96%
Cc1cc(C)c(S(=O)(=O)N(C)CC(=O)NCc2ccncc2)c(C)c1	-11.8%
CC(=O)c1cn(C)c(=O)[nH]c1=O	26.7%
Cc1ccc(C(=O)Nc2ccc(-c3csc(C)n3)cc2)cc1	17.3%
COc1ccc(S(=O)(=O)Nc2ccccc2N2CCOCC2)cc1OC	7.95%
CCN(CC)CCNC(=O)C1CCN(S(=O)(=O)N2CCCCC2)CC1	-6.62%
C=CCNC(=O)NC(=O)COC(=O)/C(C#N)=C/c1cc(C)n(CC(C)C)c1C	-4.06%
Cc1nnc(SCc2nc3scc(-c4ccccc4)c3c(=O)[nH]2)s1	12.7%
CCOC(=O)Cc1csc(NC(=O)Cc2ccc(Cl)cc2)n1	-15.1%
O=C(COC(=O)c1ccccc1)NCCC1=CCCCC1	20.4%
COc1ccc2[nH]cc(CCN3C(=O)c4ccc(C(=O)O)cc4C3=O)c2c1	12.4%
CCN1C(=O)[C@H]2[C@@H](c3ccc(C)cc3)N3C(=O)N(c4ccccc4)C(=O)[C@@]3(Cc3ccc(Cl)cc3)[C@H]2C1=O	11.4%
